The record followed here is paper PMC4242493.

The list shows a part of the results. The list includes weakly bound sequences.

The test has as its target MaxL homodimer (UniProt P61244). Kind of test: universal protein-binding microarray (PBM). The settings on record: PBS-based mixture, 10 nM His-tagged protein dimer, 2% milk, 200 ng/uL BSA, 50 ng/uL salmon testes DNA, 0.02% TX-100; detection with Alexa 488 anti-His …; high values mean tight binding; most listed sequences are background and not binding sites; double strand, one strand shown.
Sequence of UniProt P61244 (P61244 whole entry): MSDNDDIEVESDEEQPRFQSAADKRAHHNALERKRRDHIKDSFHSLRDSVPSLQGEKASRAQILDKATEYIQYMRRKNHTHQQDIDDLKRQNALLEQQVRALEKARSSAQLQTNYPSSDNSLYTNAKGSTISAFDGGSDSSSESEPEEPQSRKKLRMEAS
Regarding AAGTCTAT, the binding signal (normalized occupancy) worked out at 0.0784.

Regarding ATGTAATG, the binding signal (normalized occupancy) was 0.086.

Regarding GATAACCC, the binding signal (normalized occupancy) was found to be 0.0805.

With AACCCCAC, the binding signal (normalized occupancy) is 0.0835.

For the sequence CCGGACGA, the binding signal (normalized occupancy) was 0.0699.

In the case of CAATCAGC, the binding signal (normalized occupancy) was 0.0758.

GGTTCCAA: the binding signal (normalized occupancy) was 0.0712.

As to ACCATGAA, the binding signal (normalized occupancy) came to 0.0755.

For the sequence AAGGTCCA, the binding signal (normalized occupancy) was 0.0736.

With CGATCCCC, the binding signal (normalized occupancy) amounted to 0.0801.

In the case of AAGCATTG, the binding signal (normalized occupancy) was 0.0783.

For the sequence TCAAACGA, the binding signal (normalized occupancy) worked out at 0.0696.

For the sequence GGGTGAAC, the binding signal (normalized occupancy) was determined as 0.0697.

Consider CAACAATA, for which the binding signal (normalized occupancy) was found to be 0.0766.

For the sequence ACTTGTAC, the binding signal (normalized occupancy) came out at 0.0751.

On to CATCTAGG, for which the binding signal (normalized occupancy) is 0.0769.

AGTACGTC: the binding signal (normalized occupancy) turned out to be 0.0764.

On to ATGGAGTG, for which the binding signal (normalized occupancy) came out at 0.0877.

For the sequence TAGAACAA, the binding signal (normalized occupancy) worked out at 0.0771.

As to GCGTGTGA, the binding signal (normalized occupancy) is 0.0941.

As to ATGACCGA, the binding signal (normalized occupancy) is 0.0788.

Regarding GAACTTCC, the binding signal (normalized occupancy) turned out to be 0.0714.

Take AAGTATGG: the binding signal (normalized occupancy) is 0.0812.

For CGTCGCTC, the binding signal (normalized occupancy) came to 0.0705.

Consider CCTCACAA, for which the binding signal (normalized occupancy) amounted to 0.0767.

On to GCGTCGCA, for which the binding signal (normalized occupancy) was found to be 0.0728.

For the sequence GAGCTGAA, the binding signal (normalized occupancy) was 0.0688.

Consider AACGGCGG, for which the binding signal (normalized occupancy) was found to be 0.069.

As for CTTGTCCC, the binding signal (normalized occupancy) came to 0.0696.

With CAGACGAG, the binding signal (normalized occupancy) was 0.0711.

In the case of AGTACTCA, the binding signal (normalized occupancy) was found to be 0.0774.

For CCAAACGA, the binding signal (normalized occupancy) worked out at 0.0726.

AATCTTTC: the binding signal (normalized occupancy) was found to be 0.0698.

Take ATGCGCGG: the binding signal (normalized occupancy) came out at 0.0785.

ACCATTTC: the binding signal (normalized occupancy) is 0.0718.

Turning to AATGAGGG, the binding signal (normalized occupancy) is 0.0862.

Regarding ACACCCAG, the binding signal (normalized occupancy) stood at 0.0748.

For ATTGCTAA, the binding signal (normalized occupancy) is 0.0711.

In the case of CTGTTTTC, the binding signal (normalized occupancy) was 0.0699.

Consider GGTCGCCA, for which the binding signal (normalized occupancy) was 0.0726.

On to AACGTTGG, for which the binding signal (normalized occupancy) came out at 0.0767.

In the case of CCGCGTCA, the binding signal (normalized occupancy) turned out to be 0.0734.

For the sequence GTACTCCA, the binding signal (normalized occupancy) stood at 0.0734.

In the case of GCATACAA, the binding signal (normalized occupancy) came out at 0.0812.

For ATCAAGTG, the binding signal (normalized occupancy) turned out to be 0.0751.

GTAACGCA: the binding signal (normalized occupancy) worked out at 0.08.

On to ATACTATG, for which the binding signal (normalized occupancy) came out at 0.0788.

In the case of GAGTAGAA, the binding signal (normalized occupancy) is 0.0774.

On to CAACACCA, for which the binding signal (normalized occupancy) was 0.0772.

Regarding CCACCCGC, the binding signal (normalized occupancy) amounted to 0.0829.

In the case of ACTAGGAG, the binding signal (normalized occupancy) came out at 0.0741.

For CTAGCCGC, the binding signal (normalized occupancy) was 0.0663.

With CAAAGAAG, the binding signal (normalized occupancy) came out at 0.075.

Turning to GCGGGTAA, the binding signal (normalized occupancy) stood at 0.0806.

Consider ATGGAGAC, for which the binding signal (normalized occupancy) amounted to 0.081.

As for GAACCTCA, the binding signal (normalized occupancy) came out at 0.0742.

On to AACCATGA, for which the binding signal (normalized occupancy) worked out at 0.0836.

As to CCTTGCGA, the binding signal (normalized occupancy) stood at 0.0752.

CAACCTCC: the binding signal (normalized occupancy) was determined as 0.0759.

As for CTGGTCGA, the binding signal (normalized occupancy) is 0.066.

As to ACATACGT, the binding signal (normalized occupancy) turned out to be 0.082.

For the sequence CGCGGAAG, the binding signal (normalized occupancy) came out at 0.0733.

On to CACTACGA, for which the binding signal (normalized occupancy) stood at 0.0746.

For GGAGAGAC, the binding signal (normalized occupancy) was determined as 0.0742.

For ACACTAGG, the binding signal (normalized occupancy) was found to be 0.0765.

Regarding ACGGGTAT, the binding signal (normalized occupancy) is 0.0838.

Regarding CTGAGAGA, the binding signal (normalized occupancy) was 0.0752.

For GGACAACC, the binding signal (normalized occupancy) was 0.0763.

As for ACCTGGCT, the binding signal (normalized occupancy) was determined as 0.0765.

With AGAAAGAG, the binding signal (normalized occupancy) is 0.0717.

With CACCGGGC, the binding signal (normalized occupancy) came to 0.0698.

On to CCAAGGAG, for which the binding signal (normalized occupancy) turned out to be 0.0696.

Turning to GCTAAGAC, the binding signal (normalized occupancy) was found to be 0.0728.

ATCCTATA: the binding signal (normalized occupancy) was found to be 0.0822.

Regarding AGAGCTCC, the binding signal (normalized occupancy) is 0.07.

Take ACCTTTTA: the binding signal (normalized occupancy) worked out at 0.07.

As for CGAACTTC, the binding signal (normalized occupancy) is 0.0708.

Take AAAGGCCC: the binding signal (normalized occupancy) worked out at 0.0706.

Take AGAACGTC: the binding signal (normalized occupancy) was 0.0701.

Consider CAACCAAA, for which the binding signal (normalized occupancy) stood at 0.0736.

As for AACCGTCT, the binding signal (normalized occupancy) came to 0.0686.

For the sequence AGTCGGCG, the binding signal (normalized occupancy) amounted to 0.0676.

Turning to CTGTCTCC, the binding signal (normalized occupancy) worked out at 0.0717.

As to ACGTACCG, the binding signal (normalized occupancy) worked out at 0.0781.

Regarding AGAGTGAT, the binding signal (normalized occupancy) was 0.0778.

Consider CATTATAC, for which the binding signal (normalized occupancy) was 0.086.

AGACACCC: the binding signal (normalized occupancy) was found to be 0.0783.

Consider ATGGCTGG, for which the binding signal (normalized occupancy) amounted to 0.0791.

As for GCTGGAAA, the binding signal (normalized occupancy) amounted to 0.0759.

On to GCTGCTAC, for which the binding signal (normalized occupancy) was 0.0729.

As to CGGTCAGC, the binding signal (normalized occupancy) was 0.0733.

Turning to AGTGGGAG, the binding signal (normalized occupancy) worked out at 0.071.

Regarding GTGTATTA, the binding signal (normalized occupancy) is 0.0819.

Turning to AGTCCTGA, the binding signal (normalized occupancy) was found to be 0.071.

ACCTCGCA: the binding signal (normalized occupancy) came out at 0.0766.

For the sequence CAATGAGG, the binding signal (normalized occupancy) was 0.0801.

For the sequence CGGGTATC, the binding signal (normalized occupancy) was determined as 0.0789.

Take CGCTGTAG: the binding signal (normalized occupancy) stood at 0.077.

Take TCCACTAA: the binding signal (normalized occupancy) was determined as 0.0724.

On to CAGGGTCA, for which the binding signal (normalized occupancy) was 0.0745.

Regarding CCTACCTA, the binding signal (normalized occupancy) is 0.078.

Take TACAGAGA: the binding signal (normalized occupancy) was found to be 0.0754.

With GTTAAGAA, the binding signal (normalized occupancy) was determined as 0.0721.

For GATGATAA, the binding signal (normalized occupancy) amounted to 0.078.

With ATCTCTCG, the binding signal (normalized occupancy) stood at 0.0796.

Consider AGGGAATA, for which the binding signal (normalized occupancy) is 0.078.

CACTCATC: the binding signal (normalized occupancy) came to 0.0765.

CGTTTTAG: the binding signal (normalized occupancy) is 0.0783.

Take ATGTGGGG: the binding signal (normalized occupancy) was 0.0878.

Regarding CTCAGTGA, the binding signal (normalized occupancy) came out at 0.0714.

Regarding GTGGCTCA, the binding signal (normalized occupancy) worked out at 0.0812.

With CTTGAATA, the binding signal (normalized occupancy) is 0.0773.

As for CAGTGAAA, the binding signal (normalized occupancy) came out at 0.068.

Consider AATGGCAA, for which the binding signal (normalized occupancy) amounted to 0.0742.

Take CGTCCAAA: the binding signal (normalized occupancy) was 0.0694.

Turning to CTAAAGCC, the binding signal (normalized occupancy) worked out at 0.0727.

Turning to GACGAGGC, the binding signal (normalized occupancy) was 0.0707.

Turning to CACCAACC, the binding signal (normalized occupancy) worked out at 0.0772.

Consider TAACGACA, for which the binding signal (normalized occupancy) is 0.0739.

In the case of CACCTATA, the binding signal (normalized occupancy) turned out to be 0.0894.

Turning to CGATCCTC, the binding signal (normalized occupancy) turned out to be 0.0759.

In the case of CGTGTATC, the binding signal (normalized occupancy) amounted to 0.092.

Consider GATGTTAC, for which the binding signal (normalized occupancy) amounted to 0.0818.

With AACACAGC, the binding signal (normalized occupancy) turned out to be 0.0787.

In the case of AGAGGTCA, the binding signal (normalized occupancy) came to 0.0771.

ACATAGCG: the binding signal (normalized occupancy) amounted to 0.0747.

For ATCGAACG, the binding signal (normalized occupancy) turned out to be 0.0763.

Regarding GATATAGA, the binding signal (normalized occupancy) worked out at 0.0907.

Regarding GGTTCCAC, the binding signal (normalized occupancy) is 0.069.

For AAGAGTCC, the binding signal (normalized occupancy) amounted to 0.0718.

Regarding ATTACAAG, the binding signal (normalized occupancy) came to 0.0836.

With AGGCTTCG, the binding signal (normalized occupancy) was 0.0713.

As for TCATGCAA, the binding signal (normalized occupancy) is 0.0829.

Consider CTTCTGTC, for which the binding signal (normalized occupancy) is 0.0709.

Turning to AGTATGAT, the binding signal (normalized occupancy) worked out at 0.0858.

On to AACTCGTG, for which the binding signal (normalized occupancy) worked out at 0.095.

As for CCCCATAA, the binding signal (normalized occupancy) was found to be 0.0834.

On to AGAAGACT, for which the binding signal (normalized occupancy) came out at 0.0746.

For the sequence TATAGGAA, the binding signal (normalized occupancy) turned out to be 0.0783.

As for AGTGTCAT, the binding signal (normalized occupancy) amounted to 0.0822.

In the case of TAGCGCGA, the binding signal (normalized occupancy) is 0.0679.

In the case of CCAGTTTC, the binding signal (normalized occupancy) turned out to be 0.0689.

Consider GGAGTGAA, for which the binding signal (normalized occupancy) worked out at 0.0707.

For TCCTGGAA, the binding signal (normalized occupancy) amounted to 0.0696.

GCGCATCA: the binding signal (normalized occupancy) stood at 0.0745.

Take AGCTTTGG: the binding signal (normalized occupancy) was determined as 0.0687.

Regarding CGCGTCTA, the binding signal (normalized occupancy) was 0.0736.

For the sequence CCCAACCG, the binding signal (normalized occupancy) came to 0.0759.

As to CCCACTGC, the binding signal (normalized occupancy) worked out at 0.0759.

Turning to CCCCGCCC, the binding signal (normalized occupancy) stood at 0.0799.

Consider ATATTCAC, for which the binding signal (normalized occupancy) worked out at 0.0816.

Turning to CAGAGCCC, the binding signal (normalized occupancy) was found to be 0.069.

Turning to CCGTGCGC, the binding signal (normalized occupancy) is 0.0813.

In the case of ATACGTGC, the binding signal (normalized occupancy) was found to be 0.0872.

Consider CCGAATCC, for which the binding signal (normalized occupancy) came to 0.0756.

On to ACCCGCGA, for which the binding signal (normalized occupancy) was 0.0721.

In the case of CCGGCTTC, the binding signal (normalized occupancy) worked out at 0.0669.

For CACCCGCC, the binding signal (normalized occupancy) was 0.0799.

With AAAATGCT, the binding signal (normalized occupancy) amounted to 0.0764.

For the sequence AGTGAACA, the binding signal (normalized occupancy) was 0.0793.

On to AGCATAAG, for which the binding signal (normalized occupancy) worked out at 0.0813.

Turning to CCGTCTGA, the binding signal (normalized occupancy) came out at 0.0685.

As to CGCCATGC, the binding signal (normalized occupancy) was determined as 0.0988.

With GGCGTTCA, the binding signal (normalized occupancy) was 0.0718.

On to AGCACGGG, for which the binding signal (normalized occupancy) came out at 0.088.

As for AATCGTAA, the binding signal (normalized occupancy) was 0.0771.

With TGAGATAA, the binding signal (normalized occupancy) worked out at 0.0797.

For the sequence CGACTTAA, the binding signal (normalized occupancy) came out at 0.0729.

Turning to CACCGACA, the binding signal (normalized occupancy) stood at 0.0792.

On to ACCTCTCA, for which the binding signal (normalized occupancy) came out at 0.0737.

As for ATCCGATC, the binding signal (normalized occupancy) was 0.0835.

For the sequence CATCTTAG, the binding signal (normalized occupancy) was 0.0769.
